Among the data in PubChem BioAssay (NCI) are GI50 and TGI values, retold here.

Each structure is given as a SMILES string.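 Each compound was tested at five concentrations against cells in 96-well plates for 48 hours. The concentration for 50% growth inhibition is given as GI50. TGI denotes the concentration required for complete inhibition of growth.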 Some results are limits rather than exact numbers.

This assay has as its system NCI-H322M lung. Put plainly: inhibition of tumour cell growth, NCI panel, 48 h.

In the case of `CC(Nc1c(C#N)cnc2ccc(-c3cncc(-c4n[nH]c(=O)o4)c3)cc12)c1ccccc1` (centres undefined), the GI50 was 2920 nM and the TGI was greater than 100000 nM.
Take `CSc1ccc(/C(=N/N=C(N)N)c2ccccc2)cc1`: the GI50 was 722 nM and the TGI was determined as 18800 nM.
